{"source": "PubChem BioAssay AID504832", "about": "(National Center for Advancing Translational Sciences (NCATS), 2011)", "note": "Among all 310,000 compounds or so, about 18,000 (5.8%) were called active. The inconclusive results got no clear call from the source; some entries with a clear call stand among them for comparison. Calls follow the shape of the dose curve; as a rule, active = well fitted inhibition curve with a large enough effect; inconclusive = small, poorly fitted or top-dose-only effect, or another doubt; inactive = no such curve, though single readings can be large or run the other way. No potency is given beside an inconclusive call; the fits are too rough. % is scaled to controls: 0 for no effect and ±100 for the full control effect; potency is read from the fitted curve at half-maximal effect; tags tell the direction and shape of the fitted curve."}
{"test": "Primary qHTS for delayed death inhibitors of the malarial parasite plastid, 48 hour incubation", "conditions": "P. falciparum luciferase growth in erythrocytes; series mostly up to 28.7 µM; activity change, negative = inhibition: at the top concentration", "outline": "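Luciferase-expressing P. falciparum in infected erythrocytes (2% hematocrit, 0.1% parasitemia final) in RPMI 1640/0.5% Albumax were exposed to compound for 48 hours at 37 C, 5% CO2; growth read as luminescence.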"}
{"smiles": "Cc1cc(Cl)cc(C)c1OCCCCn1ccnc1", "Potency": "inconclusive [inhibitor, single point]"}
{"smiles": "CC(C)C(c1nnnn1Cc1ccc(F)cc1)N1CCC(C(N)=O)CC1", "note": "(centres undefined)", "activity change, negative = inhibition": "inactive: -13.8%"}
{"smiles": "CC(C)C[C@@H](CO)N(Cc1ccccc1)S(=O)(=O)N(Cc1ccccc1)[C@@H](CO)CC(C)C", "Potency": "active: 7.38 µM"}
{"smiles": "CCCOc1ccc(/C(O)=C2/C(=O)C(=O)N(CCOC)C2c2cccnc2)cc1", "note": "(centres undefined)", "Potency": "active: 1.04 µM"}
{"smiles": "CN(C)/C=C/c1onc(-c2c(F)cccc2Cl)c1C#N", "activity change, negative = inhibition": "inactive: 16.4%"}
{"smiles": "COc1cc(NC(=O)c2ccc(C)cc2)c(OC)cc1NC(=O)CN1CCCCC1", "Potency": "inconclusive [inhibitor, single point]"}
{"smiles": "O=C(/C(C=Nc1cc2c(oc1=O)CCCC2=O)=C(\\O)c1ccccc1)c1ccccc1", "activity change, negative = inhibition": "inactive: 23.9%"}
{"smiles": "COc1ccc(N=C2NC(=O)/C(=C\\c3ccco3)S2)cc1", "Potency": "inconclusive [inhibitor, partial curve]"}
{"smiles": "Cc1ccnc(NS(=O)(=O)c2ccc(NC(=O)c3oc4ccc(F)cc4c3C)cc2)n1", "activity change, negative = inhibition": "inactive: 5.71%"}
{"smiles": "CC12CC3CC(C)(C1)CC(C(=O)N1CCCC1)(C3)C2", "Potency": "inconclusive [inhibitor, full curve, poor fit]"}
{"smiles": "O=C(NCC(=O)N(Cc1ccccc1)C(C(=O)NC1CCCC1)c1cccnc1)c1ccco1", "note": "(centres undefined)", "activity change, negative = inhibition": "inactive: 0.741%"}
{"smiles": "COc1ccc(OC)c(CCNC(=O)Cn2nc(C)c3c(C)n(-c4ccccc4)nc3c2=O)c1", "activity change, negative = inhibition": "inactive: -1.06%"}
{"smiles": "Cc1ccc(C)c(-n2c(SCC(=O)Nc3nonc3C)nnc2-c2ccoc2C)c1", "Potency": "inconclusive [inhibitor, single point]"}
{"smiles": "CCOC(=O)c1c(CSc2ccc(C)cc2)n(C)c2cc(Br)c(O)c(CN(C)C)c12", "Potency": "active: 4.15 µM"}
{"smiles": "CC1(C)C(C=C(Cl)Cl)C1C(=O)N/N=C/c1ccccc1F", "note": "(centres undefined)", "Potency": "inconclusive [inhibitor, full curve, poor fit]"}
{"smiles": "COc1ccccc1OCCC(=O)OCC(=O)c1c(N)n(C)c(=O)n(C)c1=O", "activity change, negative = inhibition": "inactive: 0%"}
{"smiles": "CCN(CC)CCN(Cc1cc2ccc(C)c(C)c2[nH]c1=O)C(=S)NCc1ccco1", "Potency": "active: 10.4 µM"}
{"smiles": "CCCc1[nH]n(-c2nc3ccccc3s2)c(=O)c1C=NCC1CCCO1", "note": "(centres undefined)", "Potency": "inconclusive [inhibitor, single point]"}
{"smiles": "CC(=O)N1CCN(C(=O)c2c(-c3ccccc3)noc2C)CC1", "activity change, negative = inhibition": "inactive: -10.5%"}
{"smiles": "COc1ccc(S(=O)(=O)Nc2ccc(O)c(Sc3nc4ccccc4s3)c2)cc1", "Potency": "inconclusive [inhibitor, single point]"}
{"smiles": "COc1ccc(S(=O)(=O)N2CC3CCCN3c3ccc(C(F)(F)F)cc32)cc1", "note": "(centres undefined)", "Potency": "inconclusive [inhibitor, partial curve, poor fit]"}
{"smiles": "COc1ccc(OC)c(-c2c(=O)n(OCc3ccccc3Br)c3ccccc3[n+]2[O-])c1", "Potency": "inconclusive [inhibitor, single point]"}
{"smiles": "CCn1c(SC(C)C)nnc1C1CCN(S(=O)(=O)c2ccc(OC)cc2)CC1", "Potency": "inconclusive [inhibitor, single point]"}
{"smiles": "Cc1ccc2c(cnn2C(=O)CCC(=O)N2CCCCC2C)c1", "note": "(centres undefined)", "activity change, negative = inhibition": "inactive: 4.33%"}
{"smiles": "CCOc1ccc(N(CC(=O)Nc2cccc(OC)c2)S(=O)(=O)c2c(C)noc2C)cc1", "Potency": "inconclusive [inhibitor, single point]"}
{"smiles": "O=C(CSc1nnc(C2CC2)n1Cc1ccccc1)c1ccc(S(=O)(=O)N2CCOCC2)cc1", "Potency": "inconclusive [inhibitor, single point]"}
{"smiles": "COCCN(Cc1cc2c(C)cc(C)cc2nc1Cl)C(=O)c1ccccc1F", "Potency": "inconclusive [inhibitor, single point]"}
{"smiles": "C=C1CCC2C(C)(C)[C@H](O)CC[C@@]2(C)[C@@H]1COc1cc(=O)oc2ccccc12", "note": "(some centres undefined)", "Potency": "inconclusive [inhibitor, single point]"}
{"smiles": "Cc1ccc(-n2[nH]c(=O)c(-c3ccccn3)c2C)cc1", "activity change, negative = inhibition": "inactive: -37.3%"}
{"smiles": "O=c1[nH]c(CSc2nc3ccccc3s2)nc2cc(Cl)ccc12", "activity change, negative = inhibition": "inactive: 2.05%"}
{"smiles": "Cc1ccc(Cl)cc1NC(=S)N1CCCCCC1", "activity change, negative = inhibition": "inactive: -1.42%"}
{"smiles": "COCC(C)NC(=S)NCCc1ccc(Cl)cc1Cl", "note": "(centres undefined)", "Potency": "inconclusive [inhibitor, partial curve, poor fit]"}
{"smiles": "C/C(=N\\NC(=O)c1cc(-c2ccccc2C)nc2ccccc12)c1cccnc1", "Potency": "active: 1.85 µM"}
{"smiles": "CCOC(=O)c1c(S(=O)(=O)NCCc2cccs2)c(C)n(C)c1C", "Potency": "inconclusive [inhibitor, single point]"}
{"smiles": "O=C(CSc1nc2nn(-c3ccccc3)c(=O)c-2c2n1CCCCC2)Nc1ccc(F)cc1F", "Potency": "inconclusive [inhibitor, single point]"}
{"smiles": "O=C(O)c1cccc(NC(=O)c2cn(-c3ccccc3)nc2-c2cc3ccccc3o2)c1", "activity change, negative = inhibition": "inactive: 16.6%"}
{"smiles": "COc1ccccc1/C=C/C=N/n1c(-c2ccc(F)cc2)n[nH]c1=S", "Potency": "inconclusive [inhibitor, single point]"}
{"smiles": "COc1cccc2[nH]c3c(N4CCN(Cc5ccc6c(c5)OCO6)CC4)ncnc3c12", "Potency": "inconclusive [inhibitor, partial curve, poor fit]"}
{"smiles": "CCn1ncc(CN2CCCC(C(=O)Nc3cccc(-c4cc5ccccc5[nH]4)c3)C2)c1C", "note": "(centres undefined)", "Potency": "active: 4.15 µM"}
{"smiles": "O=C(NCCc1ccccc1)C(=O)NCCC1CCCCN1S(=O)(=O)c1cccs1", "note": "(centres undefined)", "Potency": "inconclusive [inhibitor, single point]"}
{"smiles": "CC(C)c1ccc(O)c(N)c1", "Potency": "inconclusive [inhibitor, single point]"}
{"smiles": "CCOc1ccc(N(C(=O)c2snc(C(N)=O)c2N)C(C(=O)NCC2CCCO2)c2c[nH]c3ccccc23)cc1", "note": "(centres undefined)", "Potency": "active: 5.22 µM"}
{"smiles": "Cc1ccc(-c2csc(N3CCN(S(=O)(=O)c4ccc5c(c4)NC(=O)CO5)CC3)n2)cc1", "Potency": "inconclusive [inhibitor, full curve, poor fit]"}
{"smiles": "CC1(C)CC(=O)c2cnn(-c3nc4ccccc4[nH]3)c2C1", "Potency": "inconclusive [inhibitor, single point]"}
{"smiles": "O=C(/C=C/c1ccc(S(=O)(=O)NCc2ccco2)cc1)NCc1cccc(Cl)c1", "activity change, negative = inhibition": "inactive: -11.1%"}
{"smiles": "CN(C(=S)NC(=O)c1ccccc1)C1CCCCC1", "Potency": "inconclusive [inhibitor, single point]"}
{"smiles": "COc1ccc(S(=O)(=O)N(C)C)cc1NC(=O)CN1CCN(C(=O)C2CC2)CC1", "activity change, negative = inhibition": "inactive: -24.2%"}
{"smiles": "Cc1ccc(C(C)C)c(OCC(=O)Nc2ccc3c(c2)nc(CCN2CCCCC2)n3C)c1", "Potency": "inconclusive [inhibitor, full curve]"}
{"smiles": "CCn1c(=O)n(CC)c2cc(N3CCCC3)c(NC(=O)c3ccccc3Br)cc21", "Potency": "inconclusive [inhibitor, partial curve]"}
{"smiles": "N#Cc1ccccc1COc1cccc2c1CCCC2O", "note": "(centres undefined)", "activity change, negative = inhibition": "inactive: 30.3%"}
{"smiles": "CNc1oc(C)nc1S(=O)(=O)c1ccccc1", "activity change, negative = inhibition": "inactive: -2.34%"}
{"smiles": "CCc1nc(NCCCN2CCOCC2)c2oc3ccccc3c2n1", "Potency": "inconclusive [inhibitor, partial curve]"}
{"smiles": "COc1ccc(-c2c(-c3cc(OC)cc(OC)c3)n(C)c3ccc(-c4ccn[nH]4)cc23)cc1", "Potency": "inconclusive [inhibitor, single point]"}
{"smiles": "CN(C)CCN(C)Cc1ccccc1Sc1cccc2ccccc12", "Potency": "inconclusive [inhibitor, partial curve, poor fit]"}
{"smiles": "COc1ccc(/C=C/C(=O)c2c(C)cc(C)[nH]c2=O)c2ccccc12", "Potency": "inconclusive [inhibitor, single point]"}
{"smiles": "CCc1ccc(NC(=O)C2CCCN(S(=O)(=O)c3cccnc3)C2)cc1", "note": "(centres undefined)", "Potency": "inconclusive [inhibitor, single point]"}
{"smiles": "Cc1ccc2[nH]c(C(=O)N3CCN(c4cccc(Cl)c4)CC3)cc2c1", "activity change, negative = inhibition": "inactive: -26.7%"}
{"smiles": "COC(=O)c1c(NC(=O)c2ccc([N+](=O)[O-])o2)sc2c1CCN(C(C)C)C2", "Potency": "active: 14.7 µM"}
{"smiles": "C=CCNC(=S)N1CCN(S(=O)(=O)c2ccc(C)cc2)CC1", "Potency": "inconclusive [inhibitor, single point]"}
{"smiles": "COc1ccc(-n2c(CNc3ccc(C)cc3)nnc2SCc2ccccc2)cc1", "Potency": "inconclusive [inhibitor, single point]"}
{"smiles": "CC(=O)NC1=C(NC2CCS(=O)(=O)C2)C(=O)c2ccccc2C1=O", "note": "(centres undefined)", "Potency": "active: 10.4 µM"}
{"smiles": "Cn1c(=O)c2c(ncn2CC(=O)Nc2cccc(S(=O)(=O)Nc3ccccc3F)c2)n(C)c1=O", "Potency": "inconclusive [inhibitor, partial curve, poor fit]"}
{"smiles": "COc1ccccc1C(=O)NCCC(=O)NC1CCCC(C)C1C", "note": "(centres undefined)", "Potency": "inconclusive [inhibitor, partial curve, poor fit]"}
{"smiles": "Cc1ccc(Cn2c(O)c(N=NC(=S)Nc3ccccc3F)c3cc(S(=O)(=O)N4CCOCC4)ccc32)cc1", "Potency": "active: 3.29 µM"}
{"smiles": "Cc1ccc(S(=O)(=O)N(CC(=O)N2CCC(C)CC2)Cc2ccccc2F)cc1", "Potency": "inconclusive [inhibitor, single point]"}
{"smiles": "COc1ccc(NC(=O)CSc2nc3c(c(=O)n2-c2ccc(F)cc2)SCC3)c(OC)c1", "Potency": "inconclusive [inhibitor, single point]"}
{"smiles": "COc1ccc(NC(=O)CN2CCN(CC(=O)Nc3ccccc3Cl)CC2)cc1", "activity change, negative = inhibition": "inactive: -13.3%"}
{"smiles": "Cc1c(NC(=O)Cc2noc3ccccc23)cccc1[N+](=O)[O-]", "activity change, negative = inhibition": "inactive: -7.8%"}
{"smiles": "CN(C)c1cc[n+](CCC(=O)Nc2cccc([N+](=O)[O-])c2N)cc1", "Potency": "inconclusive [inhibitor, single point]"}
